The experiment is described as follows: qHTS assay to identify small molecule antagonists of the thyroid receptor (TR) signaling pathway (AID 743065). Note: nearly all actives have a fitted effect of over 55% in size. The conditions noted are these: GH3.TRE-Luc, T3-stimulated luciferase inhibition, 23.5 h; series mostly up to 32.5 µM. In outline: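 GH3.TRE-Luc rat pituitary cells (two TREs driving luciferase) were dosed with compound, then stimulated with 1 nM T3 (final) for 23.5 h at 37 C. ONE-Glo luminescence was the read-out, with CellTiter-Fluor fluorescence as the cytotoxicity counter-screen.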
A general note: In qHTS, concentration-response curves come from the screen itself.

Inconclusive results are not listed. Calls come from the whole dose curve; as a rule, active = well fitted inhibition curve with a large enough effect in the repeat runs; inconclusive = weak or mixed curves; inactive = no such curve, though single readings can be large or run the other way. A structure can be active in one record and inactive in another. Not every entry of the source has a single result; some have several. Only these are listed. The source may hold further records. Results that share an entry are repeated measurements in other runs, samples, wells, individuals or studies. Brackets tell where a record comes from. Letters hold for one entry only.
Potency is the fitted concentration of half-maximal effect.

Consider `NC[C@H]1O[C@H](O[C@H]2[C@H](O)[C@@H](O[C@H]3O[C@H](CO)[C@@H](O)[C@H](N)[C@H]3O)[C@H](N)C[C@@H]2N)[C@H](O)[C@@H](O)[C@@H]1O`, for which the Potency entry is “inactive [sample A] and active: 2.38 µM [sample B]”.

The values above are taken from PubChem BioAssay (Tox21).
